# Results reported in the BET-seq Pho4 binding data (Le et al. 2018).
# This is one part of the list. Values were computed here from the reads of four pooled replicates and scatter widely.
# Target: T1, Pho4 (S. cerevisiae) (UniProt P07270)
# T1 sequence: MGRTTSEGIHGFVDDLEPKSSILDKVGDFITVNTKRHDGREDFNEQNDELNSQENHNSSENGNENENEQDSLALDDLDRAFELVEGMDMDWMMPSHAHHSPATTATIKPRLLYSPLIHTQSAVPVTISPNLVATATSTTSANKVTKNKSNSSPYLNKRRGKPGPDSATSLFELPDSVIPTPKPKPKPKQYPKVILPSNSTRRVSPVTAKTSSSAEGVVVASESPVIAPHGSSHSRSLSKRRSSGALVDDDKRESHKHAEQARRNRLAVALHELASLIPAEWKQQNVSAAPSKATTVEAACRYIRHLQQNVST
# Test: relative binding free energy (BET-seq); higher = weaker binding
# Conditions: reference: library average
row,Sequence,relative binding free energy [kcal/mol]
1,CTTGTCACGTGGTTGC,0.05
2,CATTGCACGTGGTGAG,-0.15
3,TTTATCACGTGGAGCT,0.23
4,AGGGTCACGTGGTATA,-0.02
5,TTAGGCACGTGTCTCG,-0.02
6,CGGGTCACGTGCGTAT,0.08
7,AGCTGCACGTGTGTAG,-0.08
8,TAGATCACGTGGTTAT,0.1
9,CTTCTCACGTGTAGGT,0.2
10,GCGGGCACGTGGTAGC,-0.18
11,GGTCACACGTGGTAAT,0.11
12,TGAGACACGTGTAGAG,0.07
13,CGAGACACGTGTGGAG,0.13
14,GTTATCACGTGTGCGG,0.29
15,TTATGCACGTGTGTAT,-0.04
16,TTGTCCACGTGGTGCT,-0.05
17,GTTGGCACGTGGTAGA,0
18,TGGTGCACGTGGTGGT,-0.09
19,TGCAGCACGTGAATTT,0.35
20,AGTCGCACGTGGTCTG,-0.24
21,AAGGGCACGTGGTGTA,-0.19
22,AACGTCACGTGGTCGG,0.05
23,TCTATCACGTGCGGGG,0.17

row,Sequence,relative binding free energy [kcal/mol]
1,TAAGGCACGTGCTATG,-0.11
2,GTAGGCACGTGCGGCA,-0.04
3,CATTGCACGTGGGAGG,-0.12
4,GGTAGCACGTGGGGTC,-0.09
5,GCTGACACGTGGAGTG,0.02
6,GCGTTCACGTGAGATG,0.26
7,TGGCGCACGTGCGGTC,-0.03
8,TTTTGCACGTGATAGG,0.12
9,ATAGGCACGTGAGATT,0.13
10,TTGGACACGTGGAATA,0.11
11,TTATCCACGTGTTGAT,0
12,TGGTCCACGTGGTTTG,0.07
13,TTTATCACGTGTTACA,0.09
14,TTTTTCACGTGTTTAT,0.36
15,TTTTTCACGTGATTGG,0.27
16,ATAAACACGTGTAGTT,-0.12
17,CTTTGCACGTGGAGTT,0.03
18,TAATGCACGTGGGTGT,-0.2
19,GTAATCACGTGTTATG,0.21
20,TCTGACACGTGTATGG,0
21,TTGATCACGTGTGATA,0.14
22,ATGAGCACGTGAGTGA,0.22
23,ATGATCACGTGGCAGT,0.14

row,Sequence,relative binding free energy [kcal/mol]
1,TTGACCACGTGGTTTA,-0.06
2,GTAGGCACGTGTATCG,0.04
3,GCGAGCACGTGAGTGA,0.4
4,CGGTACACGTGTTGTA,0.02
5,TAAAACACGTGTATTT,0.09
6,TGTTGCACGTGTTAGT,0.03
7,ATACGCACGTGGTAGG,-0.18
8,ACTATCACGTGTTAGG,0.11
9,ACGTTCACGTGGTCTT,0.09
10,ATTTGCACGTGGGTTT,-0.07
11,AAGGGCACGTGGTCAT,-0.23
12,GGTGGCACGTGATACG,0.01
13,TTTCTCACGTGTTGGA,0.29
14,TTTATCACGTGCGTGG,0.09
15,TGTGTCACGTGATCTT,0.19
16,GTAGTCACGTGTGAAG,0.24
17,TGCTACACGTGAGGTG,0.2
18,ATGCGCACGTGGTAGG,-0.25
19,TTTCGCACGTGGATGT,0.01
20,ATTCGCACGTGGTTAG,0.03
21,TTATGCACGTGCTGGC,-0.14
22,AGGTGCACGTGTAACG,0.09
23,ATATGCACGTGGAGGA,-0.01

row,Sequence,relative binding free energy [kcal/mol]
1,TTTAGCACGTGGTTCT,-0.04
2,CGATTCACGTGTATGG,0.23
3,TTGAGCACGTGGGACA,-0.18
4,TAGTCCACGTGTTTTG,0.07
5,AGTTGCACGTGGGCAT,-0.27
6,ATCTACACGTGTGGTG,0.13
7,CTGGTCACGTGTGAGG,0.15
8,AGTTACACGTGATGAT,0.22
9,GTCAACACGTGAGGGG,0.24
10,AGGTGCACGTGACAGG,0.09
11,CAGTACACGTGGTGGT,0.01
12,GGGTACACGTGAATTT,0.47
13,GGGGACACGTGAAAGT,0.27
14,TTTTGCACGTGTTGAA,0.1
15,GTAGGCACGTGAGCAG,0.15
16,TGGGCCACGTGATTGA,0.13
17,CGGTACACGTGGGAAA,0.23
18,TTTGACACGTGCTATT,-0.04
19,AGTGTCACGTGTTTAT,0.1
20,GCGATCACGTGTTGGT,0.26
21,GGTTACACGTGGGGGA,0.02
22,AGTTGCACGTGCGTTG,-0.06
23,CAGGGCACGTGAGCGG,0.18

row,Sequence,relative binding free energy [kcal/mol]
1,AGTGACACGTGATGAT,0.13
2,TTGATCACGTGATATT,0.22
3,ATTTTCACGTGTTTCG,0.29
4,TTTCTCACGTGGGTGA,0
5,TGCTACACGTGGTGGC,0.18
6,ATCGTCACGTGTGTGT,0.05
7,GGTATCACGTGGTACT,0.12
8,TGCATCACGTGACGTG,0.26
9,GAAGCCACGTGAGGGG,0.31
10,GAAGGCACGTGAGTGG,0.09
11,CATTTCACGTGGGTGT,0.2
12,ATAGACACGTGGGGTG,-0.1
13,TTGATCACGTGCTATT,0.02
14,AAGGCCACGTGGAGGT,-0.11
15,TTAGGCACGTGGTGTA,-0.18
16,TGATTCACGTGTGTTT,0.29
17,TTTTGCACGTGAGAGC,0.19
18,TTATTCACGTGTGCGT,0.17
19,CCTGGCACGTGGTTAG,-0.19
20,TGGTGCACGTGGCTTG,-0.05
21,CATTGCACGTGTTGTG,-0.08
22,TTCGTCACGTGTTGTT,0.18
23,TTCGCCACGTGGATGG,0.09
